This list was built around the results that the source calls inconclusive (neither active nor inactive); the mix of calls is not that of the screen. Where the call is inconclusive, the potency comes from a doubtful curve fit. Active and inactive are the calls of the source. Calls come from the whole dose curve; as a rule, active = well fitted activation curve with a large enough effect; inconclusive = small, poorly fitted or top-dose-only effect; inactive = no such curve, though single readings can be large or run the other way.
target: Relaxin receptor 1 (Homo sapiens) (UniProt Q9HBX9); experiment: qHTS Assay for Agonists of the Relaxin Receptor RXFP1: RXFP1 Hit Validation; details: HEK293T-RXFP1 cAMP TR-FRET, 30 min; series mostly up to 115 µM; activation: at the top concentration; note: nearly all actives have a fitted effect of over 65% in size;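 for activation: cAMP rise lowers the TR-FRET signal in lysed cells with PDE4 inhibitor present; 0% = buffer-only basal and 100% = 29 nM porcine relaxin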
UniProt Q9HBX9, sequence (Q9HBX9 whole entry, looked up): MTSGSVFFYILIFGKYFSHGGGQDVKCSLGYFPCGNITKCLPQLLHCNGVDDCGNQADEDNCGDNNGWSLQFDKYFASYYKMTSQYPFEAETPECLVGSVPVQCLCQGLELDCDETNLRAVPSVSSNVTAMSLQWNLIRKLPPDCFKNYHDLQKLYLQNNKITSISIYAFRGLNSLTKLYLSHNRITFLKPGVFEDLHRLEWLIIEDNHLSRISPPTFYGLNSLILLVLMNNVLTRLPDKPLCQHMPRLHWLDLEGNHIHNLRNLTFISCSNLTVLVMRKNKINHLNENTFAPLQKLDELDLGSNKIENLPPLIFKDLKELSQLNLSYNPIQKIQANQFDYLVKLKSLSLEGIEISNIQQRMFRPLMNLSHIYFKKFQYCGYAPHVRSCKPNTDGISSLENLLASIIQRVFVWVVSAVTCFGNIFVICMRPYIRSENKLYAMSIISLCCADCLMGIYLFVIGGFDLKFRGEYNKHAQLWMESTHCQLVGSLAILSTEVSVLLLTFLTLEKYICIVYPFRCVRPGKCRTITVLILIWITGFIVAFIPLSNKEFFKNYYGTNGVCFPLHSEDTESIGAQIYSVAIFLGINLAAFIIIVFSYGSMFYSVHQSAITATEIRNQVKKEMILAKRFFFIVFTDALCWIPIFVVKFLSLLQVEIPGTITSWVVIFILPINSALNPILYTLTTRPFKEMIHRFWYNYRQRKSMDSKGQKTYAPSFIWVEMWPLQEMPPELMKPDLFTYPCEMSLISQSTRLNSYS
Potency is the fitted concentration of half-maximal effect; tags give direction and shape of the fitted curve.

SMILES	Potency	activation
O=C(Nc1ccccc1C(=O)Nc1ccccc1C(=O)NCc1ccco1)c1ccco1	active: 21.9 µM	
CC(=O)Nc1ccc(NC(=O)CSc2ccc3nnc(-c4cccnc4)n3n2)cc1	inconclusive: 15.4 µM [activator, partial curve]	
Cc1ccc(Cl)cc1NC(=O)CCCN1C(=O)c2cccnc2C1=O		inactive: 22.7%
CC1(C)Cc2c(sc3ncnc(NN)c23)CO1		inactive: 25.2% [at 45 µM]
Cc1nn(CCc2nn[nH]n2)c2nc(-c3ccc(Br)cc3)cc(C(F)(F)F)c12	inconclusive: 17.3 µM [activator, partial curve]	
NC(=O)c1ccccc1NC(=O)CC12CC3CC(CC(C3)C1)C2		inactive: -7.81% [at 125 µM]
O=C(Nc1nc2ccsc2c(=O)s1)c1ccc(Cl)cc1	inconclusive: 10.9 µM [activator, full curve, poor fit]	
Cc1ccc(C(=O)Nc2ccccc2C(=O)NCc2ccco2)cc1		inactive: 18.8% [at 125 µM]
CC1C/C(=N\NC(N)=S)c2cc(Cl)ccc2S1 (stereo unspecified)		inactive: 5.78%
O=C(Nc1ccccc1C(=O)NCc1ccccc1)c1ccco1	inconclusive: 658 µM [activator, partial curve]	
Cn1c(=O)c2sccc2n2c(CCCC(=O)NCCc3ccccc3)nnc12	inconclusive: 34.6 µM [activator, partial curve]	
O=C(Nc1ccc2c(c1)C(=O)NC2=O)c1ccc2ncsc2c1	inconclusive: 19.4 µM [activator, partial curve]	
COc1ccc(CN2C(=O)c3cccnc3C2=O)cc1S(=O)(=O)NC1CCCCC1C (stereo unspecified)	inconclusive: 34.6 µM [activator, partial curve]	
CC(NC(=O)CCCc1nnc2n(C)c(=O)c3sccc3n12)c1ccccc1 (stereo unspecified)	inconclusive: 34.6 µM [activator, partial curve]	
COc1cccc(NC(=O)CSc2ccc3nnc(-c4cccnc4)n3n2)c1	inconclusive: 43.6 µM [activator, partial curve]	
COc1ccc(OC)c(CNC(=O)C2CCN(C(=O)N(C)C)CC2)c1		inactive: -4.27%
CC(C(=O)OCC(=O)N(C)C1(C#N)CCCCC1)N1C(=O)c2ccccc2C1=O (stereo unspecified)	inconclusive: 17.3 µM [activator, partial curve]	
CCN(CC)S(=O)(=O)c1ccc(Cl)c(NC(=O)CSc2cccc[n+]2[O-])c1	inconclusive: 27.5 µM [activator, partial curve]	

SMILES	Potency	activation
Cc1cc(C)nc(NS(=O)(=O)c2ccc(NC(=O)c3nn(-c4ccccc4)ccc3=O)cc2)n1	active: 24.5 µM	
CC[n+]1ccc(/C=C/c2ccc(N(C)C)cc2)c2ccccc21		inactive: -21.8%
CCN(CC)S(=O)(=O)c1cccc(N=Nc2c(O)c3ccccc3oc2=O)c1	active: 21.9 µM	
CCN1CCN(C(=O)CCc2nnc3ccc(N4CCC5(CC4)OCCO5)nn23)CC1	inconclusive: 48.9 µM [activator, partial curve]	
CN(C)CCCn1c(SCC(=O)Nc2nc(-c3cccc(Br)c3)cs2)nc2ccccc2c1=O		inactive: -5.83%
CCN(c1ccccc1)S(=O)(=O)c1ccc(OC)c(NC(=O)C2CC(=O)N(Cc3ccccc3)C2)c1 (stereo unspecified)		inactive: -5.54%
CC(=O)Nc1ccc(NC(=O)CSc2ccc3nnc(-c4ccccn4)n3n2)cc1		inactive: 26.3% [at 45 µM]
O=C(Nc1ccccc1C(=O)NCc1ccco1)c1ccco1		inactive: 19.7% [at 125 µM]
COc1ccc(C(C)=O)cc1Cn1cnc2c(cnn2C)c1=O	inconclusive: 19.4 µM [activator, partial curve]	
O=C(Nc1ncccn1)c1ccc([N+](=O)[O-])o1	inconclusive: 27.5 µM [activator, partial curve]	
CCN(CC)S(=O)(=O)c1ccc(N2CCOCC2)c(NC(=O)c2cc([N+](=O)[O-])ccc2Cl)c1		inactive: 14.6%
CCc1ccc2n(-c3ccc(OC)cc3)c([S-])c(C(=O)Nc3cc(C)cc(C)c3)[n+]2c1	active: 24.5 µM	
COc1ccccc1CNC(=O)CCCc1nnc2n(C)c(=O)c3sccc3n12		inactive: 29.2% [at 45 µM]
CCc1nnc(NC(=O)CSc2nc(C)nc3c2c(=O)n(C)c(=O)n3C)s1	active: 17.3 µM	
COC(=O)CCNC(=O)Cn1cnc2sc3c(c2c1=O)CCCC3		inactive: 24.4%
Cc1cccn2c(=O)c3cc(C(=O)NCCN4CCOCC4)c(=N)n(CCCN4CCOCC4)c3nc12		inactive: 20.9%
COc1cc(-c2nnc(SCC(=O)N(C)C3CCS(=O)(=O)C3)o2)cc(OC)c1OC (stereo unspecified)		inactive: 6.14% [at 45 µM]
Cc1cccc(NC(=O)c2ccccc2NC(=O)C2CCCCC2)c1C		inactive: -1.94% [at 125 µM]
